Reference: PMC12820563, “FoxP3 forms a head-to-head dimer in vivo and stabilizes its multimerization on adjacent microsatellites”
The list shows a part of the results.

molecular target: T1, MBP-FoxP1dN (Mus musculus, UniProt P58462 326-579); test: PD-seq (MBP pull-down with sequencing); 20 mM Tris-HCl pH 7.5, 100 mM NaCl, 1.5 mM MgCl2, 0.4 uM protein, 0.1 uM dsDNA library, 30 min, room temperature, amylose pull-down; high values mean tight binding; conditions: protein: recombinant; tags: His6-MBP; chain copies: 2; dsDNA, one strand shown
T1 sequence: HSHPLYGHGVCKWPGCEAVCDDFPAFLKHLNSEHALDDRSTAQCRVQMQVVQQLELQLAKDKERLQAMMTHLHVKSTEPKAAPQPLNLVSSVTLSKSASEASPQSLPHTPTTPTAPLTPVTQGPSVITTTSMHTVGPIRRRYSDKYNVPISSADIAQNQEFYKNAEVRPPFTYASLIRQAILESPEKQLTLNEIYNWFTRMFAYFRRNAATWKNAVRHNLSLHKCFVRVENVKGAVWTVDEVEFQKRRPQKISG
In short: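 Mouse FoxP3 or FoxP1 fragment lacking the N-terminus, His6-MBP-tagged and expressed in E. coli, was incubated at 0.4 µM with 0.1 µM Klenow-filled degenerate double-stranded DNA library for 30 min at room temperature in Tris pH 7.5 buffer with NaCl and MgCl2. Complexes captured on amylose resin were washed three times and their DNA sequenced on Illumina. Binding is reads-per-million enrichment of pull-down over input, replicates pooled.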

Sequence	binding signal
GATGATTGTTCTCCCAGCTGATGAATTCCAGCAATCGAGTAAACAAATTTTCCTAATCTTTCTGTTCAAGCGCCATCTAC	0.986 RPM ratio (pull-down/input)
GATGATTGTTCTCCCAGCTGATGAATTGTAGGACTCGAGTAAACAAATTTTCCTAATCTTTCTGTTCAAGCGCCATCTAC	0.895 RPM ratio (pull-down/input)
GATGATTGTTCTCCCAGCTGATGAATTTCCCCCATCGAGTAAACAAATTTTCCTAATCTTTCTGTTCAAGCGCCATCTAC	0.881 RPM ratio (pull-down/input)
GATGATTGTTCTCCCAGCTGATGAATTATTTGGCTCGAGTAAACAAATTTTCCTAATCTTTCTGTTCAAGCGCCATCTAC	1.11 RPM ratio (pull-down/input)
GATGATTGTTCTCCCAGCTGATGAATTGGGAAATTCGAGTAAACAAATTTTCCTAATCTTTCTGTTCAAGCGCCATCTAC	0.972 RPM ratio (pull-down/input)
GATGATTGTTCTCCCAGCTGATGAATTTCAGTTGTCGAGTAAACAAATTTTCCTAATCTTTCTGTTCAAGCGCCATCTAC	1.38 RPM ratio (pull-down/input)
GATGATTGTTCTCCCAGCTGATGAATTGCCATGCTCGAGTAAACAAATTTTCCTAATCTTTCTGTTCAAGCGCCATCTAC	1.02 RPM ratio (pull-down/input)
GATGATTGTTCTCCCAGCTGATGAATTTTGCGCTTCGAGTAAACAAATTTTCCTAATCTTTCTGTTCAAGCGCCATCTAC	0.86 RPM ratio (pull-down/input)
GATGATTGTTCTCCCAGCTGATGAATTTATCGGCTCGAGTAAACAAATTTTCCTAATCTTTCTGTTCAAGCGCCATCTAC	0.931 RPM ratio (pull-down/input)
GATGATTGTTCTCCCAGCTGATGAATTAGAATCCTCGAGTAAACAAATTTTCCTAATCTTTCTGTTCAAGCGCCATCTAC	0.849 RPM ratio (pull-down/input)
GATGATTGTTCTCCCAGCTGATGAATTAATGCTTTCGAGTAAACAAATTTTCCTAATCTTTCTGTTCAAGCGCCATCTAC	1.55 RPM ratio (pull-down/input)
GATGATTGTTCTCCCAGCTGATGAATTGCAGAAGTCGAGTAAACAAATTTTCCTAATCTTTCTGTTCAAGCGCCATCTAC	1.06 RPM ratio (pull-down/input)
GATGATTGTTCTCCCAGCTGATGAATTTACCACGTCGAGTAAACAAATTTTCCTAATCTTTCTGTTCAAGCGCCATCTAC	1.14 RPM ratio (pull-down/input)
GATGATTGTTCTCCCAGCTGATGAATTACTGACCTCGAGTAAACAAATTTTCCTAATCTTTCTGTTCAAGCGCCATCTAC	0.91 RPM ratio (pull-down/input)
GATGATTGTTCTCCCAGCTGATGAATTGCTCGCTTCGAGTAAACAAATTTTCCTAATCTTTCTGTTCAAGCGCCATCTAC	0.987 RPM ratio (pull-down/input)
GATGATTGTTCTCCCAGCTGATGAATTGGGGTTCTCGAGTAAACAAATTTTCCTAATCTTTCTGTTCAAGCGCCATCTAC	0.889 RPM ratio (pull-down/input)
GATGATTGTTCTCCCAGCTGATGAATTCATAGAGTCGAGTAAACAAATTTTCCTAATCTTTCTGTTCAAGCGCCATCTAC	0.833 RPM ratio (pull-down/input)
GATGATTGTTCTCCCAGCTGATGAATTTGGCCTTTCGAGTAAACAAATTTTCCTAATCTTTCTGTTCAAGCGCCATCTAC	0.919 RPM ratio (pull-down/input)
